Data published in the supplement of paper PMC11417369.
± gives the standard deviation of the averaged measurements. The list shows a part of the results.

The sequences below were run on PfAP2-EXP AP2 domain (GST-tagged) (assay: gcPBM binding intensity (ln(normalized median fluorescence intensity)); higher = stronger DNA binding).
Method in brief: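 Binding of GST-tagged P. falciparum DNA-binding domains, expressed in E. coli and used at about 25 μg on average, was carried out for 1 h in 1× PBS containing 1% milk, 0.2 mg/ml BSA, 0.5% salmon testes DNA and 0.03% Triton X-100. The target was an Agilent 4 × 180k array of primer-extended double-stranded 36-bp intergenic genomic probes plus negative controls, read with Alexa488 anti-GST antibody at 488 nm. Binding intensity is the highest Masliner-normalised natural-log median intensity across replicate spots of either probe orientation.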
For “AAGGAATATATATACATACACACATATATATATATA [CACACA_site1665]”, the “gcPBM binding intensity (ln)” value was 10 ± 0.32.
“AAAAAAAAAAAAAAAAAAAAAAATATATATATATAT [XGTACX_negctrl_site33]” was tested, and the “gcPBM binding intensity (ln)” value was 9.99 ± 0.25.
With “AATAAAAAGGAAAGGTATATGTGTGCCCTTGTGTTA [TGCATGCA_negctrl_site83]” the “gcPBM binding intensity (ln)” value was 8.69 ± 0.49.
“AAATTTTCATGTGTTGCATGCTGAACTATTTTATCA [TGCATGCA_site856]” was tested, and the “gcPBM binding intensity (ln)” value was 9.36 ± 0.32.
“AAATAAATAAAAAACACACACAAATAAATAAATATA [CACACA_site2249]” was tested, and the “gcPBM binding intensity (ln)” value was 8.72 ± 0.5.
“TATTTTTTCCTTTGTTTTTTAAACTATCTTAACTAA [XGTACX_negctrl_site519]” was tested, and the “gcPBM binding intensity (ln)” value was 8.68 ± 0.35.
In the case of “TAAAAAATGATAGAAGTGCATAAAATAATATATATA [GTGCAC_site9904]”, the “gcPBM binding intensity (ln)” value is reported as 8.9 ± 0.15.
With “ATATAATAAATATATTGTACATATGAATCTACTAAA [XGTACX_site7610]” the “gcPBM binding intensity (ln)” value was 8.24 ± 0.31.
“AAAAAATTCCTATATACACACACGCACATATTTATA [CACACA_site6192]” was tested, and the “gcPBM binding intensity (ln)” value was 8.55 ± 0.38.
For “TTTCTATTTCCTTCACATCTTTTCATCTTTTTTTTT [CACACA_negctrl_site1110]”, the “gcPBM binding intensity (ln)” value was 9.04 ± 0.47.
“GACTTGAAGAAATAAGTGCAGAGTTTTATTTTAATT [GTGCAC_site9912]” was tested, and the “gcPBM binding intensity (ln)” value was 8.22 ± 0.3.
In the case of “TTTATTAATAAGAAATGTACACAAAATTATTTCCAA [XGTACX_site5970]”, the “gcPBM binding intensity (ln)” value is reported as 8.36 ± 0.29.
In the case of “ATAGAGTCATTCCTCACACACACGCTATATGAATAG [CACACA_site2047]”, the “gcPBM binding intensity (ln)” value is reported as 8.76 ± 0.5.
For “AAAAAATACTTATAAAGTACTAATATATATAAGCAG [XGTACX_site743]”, the “gcPBM binding intensity (ln)” value was 8.61 ± 0.27.
For “TAATTAAAATTAAGAAGTACATTTTACTTTTAATGC [XGTACX_site5120]”, the “gcPBM binding intensity (ln)” value was 8.25 ± 0.2.
“AATACAAACCAAAAAGTAAATACATCAACATGATCA [CACACA_negctrl_site140]” was tested, and the “gcPBM binding intensity (ln)” value was 8.54 ± 0.34.
TATCATGTTTTTATGGTGCATGAAATCACACATTGA was tested, and the “gcPBM binding intensity (ln)” value was 8.62 ± 0.23.
In the case of “GAGAAATTTATACATACACACATATATATATTATAT [CACACA_site4038]”, the “gcPBM binding intensity (ln)” value is reported as 8.5 ± 0.26.
In the case of “TACACCATGATACATACACACAGACATATACTCATT [CACACA_site4708]”, the “gcPBM binding intensity (ln)” value is reported as 8.64 ± 0.36.
“TCCAAATGTTTGCGTTGTACTCTTTTTTTAAAACTA [XGTACX_site5148]” was tested, and the “gcPBM binding intensity (ln)” value was 8.86 ± 0.44.
With “ATAACCACATAAAATATAATTATATATATATATATA [CACACA_negctrl_site603]” the “gcPBM binding intensity (ln)” value was 10.1 ± 0.31.
“CCTGAAATTTTATTATGTACATATTATAAAATGATT [XGTACX_site1434]” was tested, and the “gcPBM binding intensity (ln)” value was 8.51 ± 0.3.
“TGGCACTAAAAAAATAAACACACAGATTTATATAAT [CACACA_site8386]” was tested, and the “gcPBM binding intensity (ln)” value was 8.57 ± 0.47.
With “ATTCCTCCCATGGAATGTACTCATCAAATAAATAAA [XGTACX_site6543]” the “gcPBM binding intensity (ln)” value was 8.39 ± 0.42.
“AATGTATTATGTAATAGTACGTATAATATCTTATTT [XGTACX_site3]” was tested, and the “gcPBM binding intensity (ln)” value was 8.3 ± 0.3.
For “ATACATATCTATAATACACACATAAATGTAACATTT [CACACA_site7621]”, the “gcPBM binding intensity (ln)” value was 8.74 ± 0.33.
“TTCTACGTTTTAAAAAAAAAAAAAAAAAAAAAAAAA [XGTACX_negctrl_site6]” was tested, and the “gcPBM binding intensity (ln)” value was 7.9 ± 0.37.
“TGAAGATAAAAATATGCACACATATATATATATATA [CACACA_site8027]” was tested, and the “gcPBM binding intensity (ln)” value was 10.1 ± 0.31.
“CATAAAAATGAACATACACACATATATTTATTTATA [CACACA_site7222]” was tested, and the “gcPBM binding intensity (ln)” value was 8.27 ± 0.59.
In the case of ATTATATATATTGGAGTGCATATATAGTATTTTATA, the “gcPBM binding intensity (ln)” value is reported as 8.52 ± 0.099.
“ACATATTATAGGAATACACACAAAAACTTATCGGTA [CACACA_site7587]” was tested, and the “gcPBM binding intensity (ln)” value was 8.65 ± 0.48.
For “ATAGAAATCTATTGTGATTATTATTTTATTTTTAGT [XGTACX_negctrl_site605]”, the “gcPBM binding intensity (ln)” value was 8.15 ± 0.28.
With “TTTTACTCTTAAAATAATAAAAAATATTCACATTTA [CACACA_negctrl_site1508]” the “gcPBM binding intensity (ln)” value was 7.84 ± 0.38.
In the case of “AAAAAGAATATAAGTAGTACAGTGCATATAATAATT [XGTACX_site617]”, the “gcPBM binding intensity (ln)” value is reported as 9.15 ± 0.11.
With “TATATATACATATACGCATGTAAATTCAAAAGTAAA [TGCATGCA_site956]” the “gcPBM binding intensity (ln)” value was 8.64 ± 0.45.
In the case of “AAGAGAAATGGGCACACACACACATATTATATATAT [CACACA_site1531]”, the “gcPBM binding intensity (ln)” value is reported as 8.88 ± 0.28.
In the case of “AATTAATGTTTTGTCACACAGTATGATTATATATAT [CACACA_site6143]”, the “gcPBM binding intensity (ln)” value is reported as 8.64 ± 0.35.
For “TATAATTTTTTTAATACACACAAATATTTATATATA [CACACA_site3042]”, the “gcPBM binding intensity (ln)” value was 8.23 ± 0.29.
With “TTAGTATATTTTTCCTGTACGTACTCAGATACAAAT [XGTACX_site7397]” the “gcPBM binding intensity (ln)” value was 8.63.
“TACACATTATGTATCATACACACAAATAAATATATA [CACACA_site608]” was tested, and the “gcPBM binding intensity (ln)” value was 8.44 ± 0.42.
“TTAAATAATTTTTAATGTACATTAAATTTATTATTA [XGTACX_site261]” was tested, and the “gcPBM binding intensity (ln)” value was 8.23 ± 0.23.
For “TTGATATAAAAAGAAAGTACTTTATAGATGTTTATT [XGTACX_site8144]”, the “gcPBM binding intensity (ln)” value was 8.46 ± 0.4.
In the case of “TATAAAAATATATATATATATATATATATATATATA [TGCATGCA_negctrl_site541]”, the “gcPBM binding intensity (ln)” value is reported as 9.99 ± 0.42.
In the case of “AATAATAACAAATGAACACACATATATATGAGCAAA [CACACA_site2121]”, the “gcPBM binding intensity (ln)” value is reported as 8.82 ± 0.55.
